Measured values: the supplement of paper PMC7238544
Structures can show the parent of a compound that is named as a salt. ± gives the standard deviation of the averaged measurements. The list shows a part of the results.

Columns and labels:
Conditions in all cases: priming compound concentration 100 µM
hAMSC donor 1 [1] = assay: Hoechst total cell count ratio vs vehicle control; higher = more cells (less toxicity)
hAMSC donor 2 [2] = assay: as above
hAMSC donor 1 [3] = assay: transgenic luciferase activity (RLU/mg protein) fold change vs vehicle control (ratio); higher = more transgene expression
hAMSC donor 2 [4] = assay: as above
hAMSC donor 1 [5] = assay: transfection efficiency (EGFP+ cells / Hoechst count) fold change vs vehicle control (ratio); hAMSC are human adipose-derived mesenchymal stem cells given an EGFP-luciferase plasmid by lipofection; higher = enhanced transfection
hAMSC donor 2 [6] = assay: as above
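Wherever Hoechst total cell count ratio vs vehicle control is given: compound added 30 min before Lipofectamine 3000 lipoplex delivery, triplicate-well means expressed against DMSO vehicle control wells of the same 96-well plate.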
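Wherever transfection efficiency (EGFP+ cells / Hoechst count) fold change vs vehicle control is given: compounds added 30 min before Lipofectamine 3000 lipoplex transfection, triplicate means relative to DMSO vehicle wells on the same plate, luciferase RLU normalized to BCA total protein.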
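Wherever transgenic luciferase activity (RLU/mg protein) fold change vs vehicle control is given: compounds in DMSO added 30 min before Lipofectamine 3000 transfection of pEGFP-Luc in 96-well plates, values are means of triplicate wells over DMSO vehicle wells on the same plate.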

SMILES | Hoechst total cell count ratio (hAMSC donor 1 [1]) | Hoechst total cell count ratio (hAMSC donor 2 [2]) | transgenic luciferase activity (hAMSC donor 1 [3]) | transgenic luciferase activity (hAMSC donor 2 [4]) | transfection efficiency (hAMSC donor 1 [5]) | transfection efficiency (hAMSC donor 2 [6])
CN1CCN(C2=Nc3ccccc3Oc3ccc(Cl)cc32)CC1 [Loxapine succinate] | 0.937 ± 0.033 | 1.56 ± 0.03 | 0.556 ± 0.036 | 0.267 ± 0.06 | 1.1 ± 0.21 | 0.63 ± 0.031
C[C@]12CCC(=O)C=C1CC[C@@H]1[C@@H]2[C@@H](O)C[C@@]2(C)[C@H]1CC[C@]2(O)C(=O)CO [Hydrocortisone] | 1.51 ± 0.021 | 1.56 ± 0.057 | 12.1 ± 3.9 | 3.1 ± 0.18 | 1.62 ± 0.7 | 1.45 ± 0.096
COC(=O)C1=C(C)NC(C)=C(C(=O)OC2CCCN(Cc3ccccc3)C2)C1c1cccc([N+](=O)[O-])c1 (stereo not given) [Benidipine hydrochloride] | 0.669 ± 0.1 | 0.502 ± 0.14 | 0.259 ± 0.13 | 0.488 ± 0.033 | 0.665 ± 0.088 | 0.875 ± 0.32
CC1(C)S[C@@H]2[C@H](NC(=O)[C@H](N)c3ccc(O)cc3)C(=O)N2[C@H]1C(=O)O [Amoxicillin] | 1.31 ± 0.05 | 1.05 ± 0.13 | 0.274 ± 0.2 | 0.762 ± 0.4 | 0.806 ± 0.25 | 1.08 ± 0.28
C[C@H]1COc2c(C3(N)CC3)c(F)cc3c(=O)c(C(=O)O)cn1c23 [Pazufloxacin] | 1.34 ± 0.28 | 1.1 ± 0.1 | 0.745 ± 0.48 | 0.75 ± 0.036 | 1.09 ± 0.23 | 1.18 ± 0.33
NC(=O)c1cccnc1 [Nicotinamide] | 1.11 ± 0.12 | 1.31 ± 0.15 | 0.464 ± 0.3 | 0.845 ± 0.13 | 1.19 ± 0.089 | 0.9 ± 0.094
COc1cc(C)nc(-n2nc(C)cc2OC)n1 [Mepirizole] | 1.52 ± 0.14 | 1.2 ± 0.24 | 1.21 ± 0.23 | 0.457 ± 0.28 | 0.575 ± 0.14 | 1.05 ± 0.35
Cc1cccc(Nc2ccncc2S(=O)(=O)NC(=O)NC(C)C)c1 [Torasemide] | 1.16 ± 0.029 | 1.13 ± 0.29 | 1.71 ± 1 | 1.39 ± 0.65 | 1.64 ± 0.42 | 1.74 ± 0.28
CC(=O)N1CCN(c2ccc(OCC3COC(Cn4ccnc4)(c4ccc(Cl)cc4Cl)O3)cc2)CC1 (stereo not given) [Ketoconazole] | 1.36 ± 0.061 | 0.951 ± 0.028 | 2.44 ± 0.36 | 3.48 ± 0.2 | 1.2 ± 0.11 | 2.1 ± 0.23
O=C(O)c1cccnc1 [Nicotinic acid] | 1.18 ± 0.07 | 1.23 ± 0.091 | 0.808 ± 0.43 | 1.42 ± 0.48 | 0.884 ± 0.19 | 1.59 ± 0.28
CO[C@H]1/C=C/O[C@@]2(C)Oc3c(C)c(O)c4c(O)c(c(/C=N/N5CCN(C6CCCC6)CC5)c(O)c4c3C2=O)NC(=O)/C(C)=C\C=C\[C@H](C)[C@H](O)[C@@H](C)[C@@H](O)[C@@H](C)[C@H](OC(C)=O)[C@@H]1C [Rifapentine] | 1.69 ± 0.57 | 1.72 ± 0.16 | 0.0648 ± 0.048 | 0.285 ± 0.079 | 0.114 ± 0.055 | 0.174 ± 0.029
Nc1c2c(nc3c1CCC3)CCCC2 [Ipidacrine] | 1.13 ± 0.13 | 1.28 ± 0.082 | 0.219 ± 0.086 | 0.526 ± 0.13 | 0.76 ± 0.23 | 0.849 ± 0.016
CN1CCC(=C2c3ccccc3CCc3sccc32)CC1 [Pizotyline maleate] | 0.164 ± 0.077 | 0.0817 ± 0.014 | 0.00986 ± 0.011 | 0.0303 ± 0.017 | 0.367 ± 0.13 | 0.369 ± 0.1
O=C1c2c(O)cc(O)cc2O[C@H](c2ccc(O)c(O)c2)[C@H]1O (racemic) [Taxifolin-(+/-)] | 1.14 ± 0.089 | 0.566 ± 0.21 | 1.54 ± 0.22 | 0.584 ± 0.068 | 0.964 ± 0.023 | 0.681 ± 0.3
CN(C)CCC[C@@]1(c2ccc(F)cc2)OCc2cc(C#N)ccc21 [Escitalopram oxalate] | 1.08 ± 0.053 | 0.833 ± 0.072 | 0.711 ± 0.2 | 0.451 ± 0.083 | 1.46 ± 0.42 | 1.1 ± 0.15
COc1ccc2[nH]c([S+]([O-])Cc3ncc(C)c(OC)c3C)nc2c1 (stereo not given) [Omeprazole] | 1.43 ± 0.23 | 1.18 ± 0.047 | 1.03 ± 0.1 | 0.901 ± 0.11 | 0.763 ± 0.078 | 0.705 ± 0.058
Nc1nc2ccc(OC(F)(F)F)cc2s1 [Riluzole hydrochloride] | 1.19 ± 0.047 | 1.72 ± 0.19 | 0.517 ± 0.14 | 1.33 ± 0.21 | 1.24 ± 0.078 | 0.96 ± 0.21
COc1cc2c(cc1OC)C(=O)C(CC1CCN(Cc3ccccc3)CC1)C2 (stereo not given) [Donepezil hydrochloride] | 1.02 ± 0.07 | 1.14 ± 0.12 | 0.26 ± 0.14 | 0.699 ± 0.23 | 0.589 ± 0.06 | 0.717 ± 0.1
O=C1N(c2ccccc2)c2ccccc2C1(Cc1ccncc1)Cc1ccncc1 [Linopirdine dihydrochloride] | 1.05 ± 0.24 | 0.907 ± 0.053 | 0.58 ± 0.048 | 0.648 ± 0.092 | 0.958 ± 0.23 | 1.17 ± 0.082
Nc1ccn([C@@H]2O[C@H](CO)[C@@H](O)[C@@H]2O)c(=O)n1 [Cytarabine] | 1.03 ± 0.076 | 1.37 ± 0.37 | 1.02 ± 0.39 | 0.72 ± 0.28 | 1.55 ± 0.68 | 0.833 ± 0.27
CC(C(O)c1ccc(O)cc1)N1CCC(Cc2ccccc2)CC1 (stereo not given) [Ifenprodil hemitartrate] | 1.39 ± 0.14 | 1.07 ± 0.2 | 0.481 ± 0.22 | 0.859 ± 0.2 | 0.826 ± 0.19 | 0.825 ± 0.047
Nc1nnc(-c2cccc(Cl)c2Cl)c(N)n1 [Lamotrigine] | 0.939 ± 0.066 | 1.11 ± 0.073 | 1.41 ± 0.18 | 0.899 ± 0.25 | 0.966 ± 0.19 | 1.18 ± 0.15
CC(C)(C#N)c1cc(Cn2cncn2)cc(C(C)(C)C#N)c1 [Anastrozole] | 1.27 ± 0.16 | 0.877 ± 0.17 | 1.18 ± 0.16 | 0.91 ± 0.15 | 1.06 ± 0.35 | 1.07 ± 0.18
Cc1[nH]c(=O)c(C#N)cc1-c1ccncc1 [Milrinone] | 1.48 ± 0.24 | 1.34 ± 0.057 | 0.506 ± 0.15 | 0.633 ± 0.12 | 1.2 ± 0.085 | 0.902 ± 0.027
CN(C)[C@@H]1C(O)=C(C(N)=O)C(=O)[C@@]2(O)C(O)=C3C(=O)c4c(O)ccc(Cl)c4[C@@H](O)[C@H]3C[C@@H]12 [Demeclocycline] | 1.74 ± 0.087 | 1.94 ± 0.21 | 0.119 ± 0.044 | 0.498 ± 0.26 | 0.212 ± 0.078 | 0.403 ± 0.068
N[C@@H](Cc1cc(I)c(Oc2ccc(O)c(I)c2)c(I)c1)C(=O)O [3,5,3'-Triiodothyronine] | 0.82 ± 0.11 | 1.2 ± 0.21 | 1.96 ± 0.24 | 2.39 ± 0.7 | 1.9 ± 0.22 | 1.66 ± 0.33
CCN1CCN(c2cc3c(cc2F)c(=O)c(C(=O)O)cn3C2CC2)CC1 [Enrofloxacin] | 0.89 ± 0.011 | 1.19 ± 0.12 | 0.855 ± 0.94 | 0.885 ± 0.25 | 1.08 ± 0.33 | 0.96 ± 0.098
Clc1ccc2nsnc2c1NC1=NCCN1 [Tizanidine hydrochloride] | 1.05 ± 0.052 | 1.59 ± 0.88 | 0.933 ± 0.18 | 0.659 ± 0.32 | 1.07 ± 0.42 | 1.18 ± 0.59
Cc1onc(-c2ccccc2)c1C(=O)N[C@@H]1C(=O)N2[C@@H]1SC(C)(C)[C@@H]2C(=O)O [Oxacillin sodium] | 0.962 ± 0.083 | 1.38 ± 0.14 | 1.82 ± 1.1 | 1.24 ± 0.28 | 1.27 ± 0.32 | 0.987 ± 0.12
Cc1occc(=O)c1O [Maltol] | 1.3 ± 0.076 | 1.32 ± 0.096 | 1.05 ± 0.1 | 0.25 ± 0.16 | 0.786 ± 0.073 | 1.06 ± 0.092
